{"source": "paper PMC12820563", "note": "Some of the results follow. The list includes weakly bound sequences.", "data": [{"target": "T1, MBP-FoxP3dN (UniProt Q99JB6)", "T1 sequence": "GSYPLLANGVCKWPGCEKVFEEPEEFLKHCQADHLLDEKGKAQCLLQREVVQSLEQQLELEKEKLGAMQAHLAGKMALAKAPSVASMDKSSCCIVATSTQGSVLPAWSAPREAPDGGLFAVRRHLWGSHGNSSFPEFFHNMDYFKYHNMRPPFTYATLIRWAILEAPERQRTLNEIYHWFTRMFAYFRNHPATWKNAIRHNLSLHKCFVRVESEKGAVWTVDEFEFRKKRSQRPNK", "assay": "PD-seq (MBP pull-down with sequencing)", "settings": "20 mM Tris-HCl pH 7.5, 100 mM NaCl, 1.5 mM MgCl2, 0.4 uM protein, 0.1 uM dsDNA library, 30 min, room temperature, amylose pull-down; high values mean tight binding; double strand, one strand shown", "values": [{"sequence": "GATGATTGTTCTCCCAGCTGATGAATTGCTTGGATCGAGTAAACAAATTTTCCTAATCTTTCTGTTCAAGCGCCATCTAC", "binding signal (RPM ratio (pull-down/input))": 0.598}, {"sequence": "GATGATTGTTCTCCCAGCTGATGAATTCTTAACTTCGAGTAAACAAATTTTCCTAATCTTTCTGTTCAAGCGCCATCTAC", "binding signal (RPM ratio (pull-down/input))": 0.283}, {"sequence": "GATGATTGTTCTCCCAGCTGATGAATTGCCATTGTCGAGTAAACAAATTTTCCTAATCTTTCTGTTCAAGCGCCATCTAC", "binding signal (RPM ratio (pull-down/input))": 1.24}, {"sequence": "GATGATTGTTCTCCCAGCTGATGAATTACCGCCATCGAGTAAACAAATTTTCCTAATCTTTCTGTTCAAGCGCCATCTAC", "binding signal (RPM ratio (pull-down/input))": 2.45}, {"sequence": "GATGATTGTTCTCCCAGCTGATGAATTACTCCCATCGAGTAAACAAATTTTCCTAATCTTTCTGTTCAAGCGCCATCTAC", "binding signal (RPM ratio (pull-down/input))": 0.306}, {"sequence": "GATGATTGTTCTCCCAGCTGATGAATTGTCGATTTCGAGTAAACAAATTTTCCTAATCTTTCTGTTCAAGCGCCATCTAC", "binding signal (RPM ratio (pull-down/input))": 0.547}, {"sequence": "GATGATTGTTCTCCCAGCTGATGAATTGTGATGATCGAGTAAACAAATTTTCCTAATCTTTCTGTTCAAGCGCCATCTAC", "binding signal (RPM ratio (pull-down/input))": 2.48}, {"sequence": "GATGATTGTTCTCCCAGCTGATGAATTAGACTATTCGAGTAAACAAATTTTCCTAATCTTTCTGTTCAAGCGCCATCTAC", "binding signal (RPM ratio (pull-down/input))": 0.444}, {"sequence": "GATGATTGTTCTCCCAGCTGATGAATTTTCATATTCGAGTAAACAAATTTTCCTAATCTTTCTGTTCAAGCGCCATCTAC", "binding signal (RPM ratio (pull-down/input))": 0.425}, {"sequence": "GATGATTGTTCTCCCAGCTGATGAATTCGGATTATCGAGTAAACAAATTTTCCTAATCTTTCTGTTCAAGCGCCATCTAC", "binding signal (RPM ratio (pull-down/input))": 0.708}, {"sequence": "GATGATTGTTCTCCCAGCTGATGAATTTTTGGCTTCGAGTAAACAAATTTTCCTAATCTTTCTGTTCAAGCGCCATCTAC", "binding signal (RPM ratio (pull-down/input))": 0.282}, {"sequence": "GATGATTGTTCTCCCAGCTGATGAATTGGCCGTATCGAGTAAACAAATTTTCCTAATCTTTCTGTTCAAGCGCCATCTAC", "binding signal (RPM ratio (pull-down/input))": 0.451}, {"sequence": "GATGATTGTTCTCCCAGCTGATGAATTAAAGGCTTCGAGTAAACAAATTTTCCTAATCTTTCTGTTCAAGCGCCATCTAC", "binding signal (RPM ratio (pull-down/input))": 0.436}, {"sequence": "GATGATTGTTCTCCCAGCTGATGAATTGACAAAATCGAGTAAACAAATTTTCCTAATCTTTCTGTTCAAGCGCCATCTAC", "binding signal (RPM ratio (pull-down/input))": 0.373}, {"sequence": "GATGATTGTTCTCCCAGCTGATGAATTCTCGTTTTCGAGTAAACAAATTTTCCTAATCTTTCTGTTCAAGCGCCATCTAC", "binding signal (RPM ratio (pull-down/input))": 0.442}, {"sequence": "GATGATTGTTCTCCCAGCTGATGAATTTTCAGTCTCGAGTAAACAAATTTTCCTAATCTTTCTGTTCAAGCGCCATCTAC", "binding signal (RPM ratio (pull-down/input))": 0.301}, {"sequence": "GATGATTGTTCTCCCAGCTGATGAATTGATTGAGTCGAGTAAACAAATTTTCCTAATCTTTCTGTTCAAGCGCCATCTAC", "binding signal (RPM ratio (pull-down/input))": 0.467}, {"sequence": "GATGATTGTTCTCCCAGCTGATGAATTCACGCCCTCGAGTAAACAAATTTTCCTAATCTTTCTGTTCAAGCGCCATCTAC", "binding signal (RPM ratio (pull-down/input))": 0.741}, {"sequence": "GATGATTGTTCTCCCAGCTGATGAATTCTCGCGTTCGAGTAAACAAATTTTCCTAATCTTTCTGTTCAAGCGCCATCTAC", "binding signal (RPM ratio (pull-down/input))": 1.27}, {"sequence": "GATGATTGTTCTCCCAGCTGATGAATTTCCAGAGTCGAGTAAACAAATTTTCCTAATCTTTCTGTTCAAGCGCCATCTAC", "binding signal (RPM ratio (pull-down/input))": 0.159}, {"sequence": "GATGATTGTTCTCCCAGCTGATGAATTGGGCCGGTCGAGTAAACAAATTTTCCTAATCTTTCTGTTCAAGCGCCATCTAC", "binding signal (RPM ratio (pull-down/input))": 0.372}, {"sequence": "GATGATTGTTCTCCCAGCTGATGAATTGGCTACCTCGAGTAAACAAATTTTCCTAATCTTTCTGTTCAAGCGCCATCTAC", "binding signal (RPM ratio (pull-down/input))": 0.421}, {"sequence": "GATGATTGTTCTCCCAGCTGATGAATTGTTCAAGTCGAGTAAACAAATTTTCCTAATCTTTCTGTTCAAGCGCCATCTAC", "binding signal (RPM ratio (pull-down/input))": 0.292}, {"sequence": "GATGATTGTTCTCCCAGCTGATGAATTGCCGGATTCGAGTAAACAAATTTTCCTAATCTTTCTGTTCAAGCGCCATCTAC", "binding signal (RPM ratio (pull-down/input))": 0.392}, {"sequence": "GATGATTGTTCTCCCAGCTGATGAATTTAAGGCTTCGAGTAAACAAATTTTCCTAATCTTTCTGTTCAAGCGCCATCTAC", "binding signal (RPM ratio (pull-down/input))": 0.384}, {"sequence": "GATGATTGTTCTCCCAGCTGATGAATTCTGACGGTCGAGTAAACAAATTTTCCTAATCTTTCTGTTCAAGCGCCATCTAC", "binding signal (RPM ratio (pull-down/input))": 0.284}, {"sequence": "GATGATTGTTCTCCCAGCTGATGAATTTGATTCTTCGAGTAAACAAATTTTCCTAATCTTTCTGTTCAAGCGCCATCTAC", "binding signal (RPM ratio (pull-down/input))": 1.95}, {"sequence": "GATGATTGTTCTCCCAGCTGATGAATTTACCGCGTCGAGTAAACAAATTTTCCTAATCTTTCTGTTCAAGCGCCATCTAC", "binding signal (RPM ratio (pull-down/input))": 0.551}, {"sequence": "GATGATTGTTCTCCCAGCTGATGAATTGGAGAGCTCGAGTAAACAAATTTTCCTAATCTTTCTGTTCAAGCGCCATCTAC", "binding signal (RPM ratio (pull-down/input))": 0.216}, {"sequence": "GATGATTGTTCTCCCAGCTGATGAATTTAACAGTTCGAGTAAACAAATTTTCCTAATCTTTCTGTTCAAGCGCCATCTAC", "binding signal (RPM ratio (pull-down/input))": 0.464}, {"sequence": "GATGATTGTTCTCCCAGCTGATGAATTCATACCTTCGAGTAAACAAATTTTCCTAATCTTTCTGTTCAAGCGCCATCTAC", "binding signal (RPM ratio (pull-down/input))": 0.401}, {"sequence": "GATGATTGTTCTCCCAGCTGATGAATTGGCTGACTCGAGTAAACAAATTTTCCTAATCTTTCTGTTCAAGCGCCATCTAC", "binding signal (RPM ratio (pull-down/input))": 0.845}]}]}
